{"source": "PubChem BioAssay AID1508623", "about": "(National Center for Advancing Translational Sciences (NCATS), 2021)", "note": "Hit rate of the full screen: of about 48,000 compounds, about 450 (0.94%) were called active. About 19% were inconclusive and are not listed. Calls follow the shape of the dose curve; as a rule, active = well fitted inhibition curve with a large enough effect; inconclusive = small, poorly fitted or top-dose-only effect; inactive = no such curve, though single readings can be large or run the other way. Some of the results follow.", "data": [{"test": "Primary qHTS for Identification of Small Molecule Inhibitors of Huntingtin Promoter Activity; also: nearly all actives have a fitted effect of over 50% in size", "conditions": "HEK293 HTT promoter firefly luciferase reporter (activity 0% = vehicle and -100% = no light), 24 h; series mostly up to 57.5 µM; activity change, negative = inhibition: at the top concentration", "outline": "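HEK293 luciferase promoter-reporter cells (2,500/well) plated 24 h, then compounds added at up to 57.5 uM final for 24 h at 37 °C. Firefly luminescence by Dual-Glo, normalized to vehicle (0%) and zero RLU (-100%).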", "values": [{"smiles": "CCC(Sc1nc2ccccc2c2nc(CCc3c(C)n[nH]c3C)nn12)C(=O)Nc1ccc(OC)cc1", "note": "(stereo unspecified)", "activity change, negative = inhibition": "inactive: 4.05%"}, {"smiles": "COc1ccc(Cl)cc1NC(=O)CSc1c2c(nc3ccccc13)CCC2", "activity change, negative = inhibition": "inactive: -26.3%"}, {"smiles": "CCN(c1ccccc1)S(=O)(=O)c1ccc(NC(=O)c2cc(=O)c3cc(C)ccc3o2)cc1", "activity change, negative = inhibition": "inactive: -10.8% [at 11.5 µM]"}, {"smiles": "O=C(c1ccc2c(c1)N(Cc1ccc(F)cc1)C(=O)c1ccccc1S2=O)N1CCOCC1", "note": "(stereo unspecified)", "activity change, negative = inhibition": "inactive: -15.6%"}, {"smiles": "Cc1ccccc1-n1c(=O)c2c3c(sc2n2cnnc12)CCCC3", "activity change, negative = inhibition": "inactive: -10.1% [at 11.5 µM]"}, {"smiles": "O=S(=O)(Nc1cccc(-c2ccc(N3CCCC3)nn2)c1)c1ccc(F)cc1F", "activity change, negative = inhibition": "inactive: 9.56%"}, {"smiles": "COc1ccc(NC(=O)CSc2c3c(nc4ccccc24)CCC3)c(OC)c1", "activity change, negative = inhibition": "inactive: -1.97%"}, {"smiles": "COc1ccc(N2CCN(C(=O)CN(C)S(=O)(=O)c3cccs3)CC2)cc1", "activity change, negative = inhibition": "inactive: -10.5%"}, {"smiles": "COc1ccc(Cn2ccnc2SCC(=O)Nc2cc(C(F)(F)F)ccc2Cl)cc1", "activity change, negative = inhibition": "inactive: -16.1%"}, {"smiles": "CCOC(=O)c1ccccc1NC(=O)c1sc2ccccc2c1Cl", "activity change, negative = inhibition": "inactive: -10.8% [at 11.5 µM]"}, {"smiles": "COc1ccc(-c2cn3nc(N4CCCC(C(=O)NCc5ccccc5C)C4)sc3n2)cc1", "note": "(stereo unspecified)", "activity change, negative = inhibition": "inactive: -27.3%"}, {"smiles": "CCN(CC)C(=O)Cn1c(=O)cc(C)c2c(C)nn(C)c21", "activity change, negative = inhibition": "inactive: -6.93%"}, {"smiles": "Cc1cc(Cl)ccc1Nc1ncnc2onc(C)c12", "activity change, negative = inhibition": "inactive: -25.9%"}, {"smiles": "Fc1ccccc1OCc1nc(-c2ccc(-n3cccc3)cc2)no1", "activity change, negative = inhibition": "inactive: 14.8%"}, {"smiles": "O=C(Nc1ccccc1Cl)C1CCN(c2nc3ccccc3[nH]2)CC1", "activity change, negative = inhibition": "inactive: 2%"}, {"smiles": "COc1cccc(NC(=O)CSCn2nnc3c(=O)[nH]c(Cc4ccc(F)cc4)nc32)c1", "activity change, negative = inhibition": "inactive: -0.967%"}, {"smiles": "COC(=O)c1ccc2c(c1)N(CC(=O)Nc1cccc(C(F)(F)F)c1)C(=O)c1ccccc1S2", "activity change, negative = inhibition": "inactive: -21.2%"}, {"smiles": "CC(C)c1ccccc1NC(=O)CN(c1ccccc1)S(=O)(=O)N(C)C", "activity change, negative = inhibition": "inactive: -13.8%"}, {"smiles": "O=C(Cn1ccn(-c2cccc(Cl)c2)c(=O)c1=O)c1ccc(F)cc1", "activity change, negative = inhibition": "inactive: -24.9%"}, {"smiles": "O=C(NCCCN1CCN(c2ccc(F)cc2)CC1)c1sc2ncccc2c1-n1cccc1", "activity change, negative = inhibition": "inactive: -32%"}, {"smiles": "CCOc1ccc(CNC(=O)c2[nH]c3ccccc3c2Sc2ccc(C)cc2)cc1", "activity change, negative = inhibition": "inactive: -4.05%"}, {"smiles": "Cc1ccc(NC(=O)CCS(=O)(=O)c2ccc(Br)cc2)c(C)c1", "activity change, negative = inhibition": "inactive: -26.5%"}, {"smiles": "CSc1ccc(C(=O)c2[nH]c(=O)[nH]c2C)cc1", "activity change, negative = inhibition": "inactive: 7.72%"}, {"smiles": "COc1ccc(OC)c(S(=O)(=O)N2Cc3ccccc3CC2C(=O)Nc2ccc(Cl)cc2)c1", "note": "(stereo unspecified)", "activity change, negative = inhibition": "inactive: -28.3%"}, {"smiles": "CCOc1ccc(-c2nn(-c3ccccc3)cc2C2NC(=O)NC(C)=C2C(=O)OC(C)C)cc1C", "note": "(stereo unspecified)", "activity change, negative = inhibition": "inactive: -20%"}, {"smiles": "Cc1ccc(-n2nc(CO)c(C(=O)NCCCCc3ccccc3)n2)cc1", "activity change, negative = inhibition": "inactive: 2.08%"}, {"smiles": "Cc1cc(C)cc(NC(=O)CCS(=O)(=O)c2ccc3nc(C)sc3c2)c1", "activity change, negative = inhibition": "inactive: -11.6%"}, {"smiles": "O=C1C(c2ccc(F)cc2)N(Cc2ccccc2Cl)C(=O)CN1C1CCCCC1", "note": "(stereo unspecified)", "activity change, negative = inhibition": "inactive: -28.1%"}, {"smiles": "COc1ccc(CNC(=O)c2cc3c(=O)n4cccc(C)c4nc3s2)cc1", "activity change, negative = inhibition": "inactive: -0.529%"}, {"smiles": "CCOC(=O)c1[nH]c(C)c(CCC(=O)NC(C)c2ccccc2)c1C", "note": "(stereo unspecified)", "activity change, negative = inhibition": "inactive: 2.23%"}, {"smiles": "O=C(Nc1cc2ccc(O)cc2oc1=O)c1ccc(F)cc1", "activity change, negative = inhibition": "inactive: 39.3%"}, {"smiles": "Cc1cccc(CNC(=O)Cc2ccc(NC(=O)N3CCCCc4ccccc43)cc2)c1", "activity change, negative = inhibition": "inactive: -25.6%"}, {"smiles": "COc1ccc(CCNC(=O)CCCCn2c(=O)c3ccccc3n(Cc3ccc(Cl)cc3)c2=O)cc1OC", "activity change, negative = inhibition": "inactive: -29.7%"}, {"smiles": "COc1cccc(CNC(=O)c2oc3ccc4c(c3c2C)C(=O)CC(C)(C)O4)c1OC", "activity change, negative = inhibition": "inactive: 9.94%"}, {"smiles": "Cc1ccc(N(C)C(=O)Cn2cc(S(=O)(=O)N3CCCC3)c(S(=O)(=O)N3CCCC3)c2)cc1", "activity change, negative = inhibition": "inactive: -13.7% [at 11.5 µM]"}, {"smiles": "Cn1c(=O)c2c(n3ncnc13)NC(=O)CC2c1cccc(F)c1", "note": "(stereo unspecified)", "activity change, negative = inhibition": "inactive: -14.6%"}, {"smiles": "COc1ccc(NS(=O)(=O)c2ccc3c(c2)CC(C)N3C(C)=O)c(OC)c1", "note": "(stereo unspecified)", "activity change, negative = inhibition": "inactive: -29.5%"}, {"smiles": "Cc1ccc(-n2c(=O)c3c(cnn3C)n(CC(=O)Nc3c(C)cccc3C)c2=O)cc1", "activity change, negative = inhibition": "inactive: -14.6%"}, {"smiles": "C=Cc1ccc(CSc2nnc(C)n3c2cc2occc23)cc1", "activity change, negative = inhibition": "inactive: -14.3%"}, {"smiles": "Cc1ccc2c(CC(=O)N(Cc3ccc(Cl)cc3)Cc3ccco3)coc2c1", "activity change, negative = inhibition": "inactive: -32.7%"}, {"smiles": "Cc1ccccc1Nc1cc(C(=O)NCCc2ccc(Cl)cc2)c2ccccc2n1", "activity change, negative = inhibition": "inactive: -8.62%"}, {"smiles": "COc1cccc(C(=O)Nc2c(C(=O)c3ccc(F)cc3)oc3ccccc23)c1", "activity change, negative = inhibition": "inactive: -16.4%"}, {"smiles": "COc1cc(C2c3c(oc4ccc(C)cc4c3=O)C(=O)N2Cc2ccccc2)ccc1O", "note": "(stereo unspecified)", "activity change, negative = inhibition": "inactive: -7.62%"}, {"smiles": "COC(=O)Cc1c(C)c2ccc3c(c2oc1=O)CN(Cc1ccccc1OC)CO3", "activity change, negative = inhibition": "inactive: -6.44%"}, {"smiles": "O=C(Nc1cccc(F)c1)c1cccc2c1C(=O)N(C1CCCCC1)C2", "activity change, negative = inhibition": "inactive: -19%"}, {"smiles": "COc1ccccc1NC(=O)Cn1c(=O)n(-c2cccc(Cl)c2)c(=O)c2c1c1cc(C)ccc1n2C", "activity change, negative = inhibition": "inactive: -16.2%"}, {"smiles": "CN1CCc2nc3sc(C(=O)Nc4cccc(C#N)c4)c(N)c3cc2C1", "activity change, negative = inhibition": "inactive: 0%"}, {"smiles": "Cc1cc(C)cc(Nc2nnc(-n3nc(C)cc3C)c3ccccc23)c1", "activity change, negative = inhibition": "inactive: -17.3%"}, {"smiles": "CCc1ccccc1NC(=O)CSc1ncc(S(=O)(=O)c2ccccc2)c(=O)[nH]1", "activity change, negative = inhibition": "inactive: -5.27%"}, {"smiles": "Cc1cccc(OCC(=O)Nc2ccc(Cl)c(-c3nc4ccccc4[nH]3)c2)c1", "activity change, negative = inhibition": "inactive: -11.8%"}, {"smiles": "O=C(CC1C(=O)N(c2ccccc2)C(=O)N1Cc1ccc2c(c1)OCO2)Nc1ccccc1", "note": "(stereo unspecified)", "activity change, negative = inhibition": "inactive: -21.5%"}, {"smiles": "O=C1CC(c2nnc(Cc3ccccc3Cl)o2)CN1c1ccccc1", "note": "(stereo unspecified)", "activity change, negative = inhibition": "inactive: -15.4%"}, {"smiles": "Cc1ccc(-c2cc3c(n2-c2ccccc2F)CC(C)(C)CC3=O)cc1", "activity change, negative = inhibition": "inactive: 2.38%"}, {"smiles": "CCOC(=O)c1ccc(CN(Cc2ccccc2C)S(=O)(=O)c2ccc(F)c(C(=O)Nc3cccc(OC)c3)c2)cc1", "activity change, negative = inhibition": "inactive: -22.6%"}, {"smiles": "O=C(CN1C(=O)CSc2ccc(S(=O)(=O)N3CCCC3)cc21)NCc1ccc(Cl)cc1", "activity change, negative = inhibition": "inactive: -18.7%"}, {"smiles": "COc1ccc(NC(=O)CN2C(=O)COc3ccc(S(=O)(=O)N4CCCCC4)cc32)cc1Cl", "activity change, negative = inhibition": "inactive: -11%"}, {"smiles": "COc1ccc(NC(=O)c2oc3ccccc3c2NC(=O)Cc2cccs2)cc1", "activity change, negative = inhibition": "inactive: -16.8%"}, {"smiles": "Cc1ccc(NC(=O)c2sc3nc(-c4ccc(F)cc4)ccc3c2N)cc1F", "activity change, negative = inhibition": "inactive: 0.431%"}, {"smiles": "O=C(Cn1cc(C(=O)C2CC2)c2ccccc21)Nc1ccc(Br)cc1", "activity change, negative = inhibition": "inactive: -9.98%"}, {"smiles": "COc1ccccc1N1CCN(c2ccc(-c3nc(-c4ccccc4)no3)cc2[N+](=O)[O-])CC1", "activity change, negative = inhibition": "inactive: -1.78%"}, {"smiles": "Cc1ccc(C)c(Cn2c(=O)n(CCCCCC(=O)NCc3ccc4c(c3)OCO4)c(=O)c3sccc32)c1", "activity change, negative = inhibition": "inactive: -25.1%"}]}]}
